# Results published in PubChem BioAssay AID1347165 (National Center for Advancing Translational Sciences (NCATS), 2019).
# Out of some 220,000 compounds screened, about 5,700 (2.6%) were called active. Inconclusive results, whose numbers are uncertain, are shown with a selection of clear calls. Calls follow the shape of the dose curve; as a rule, active = well fitted inhibition curve with a large enough effect; inconclusive = small, poorly fitted or top-dose-only effect; inactive = no such curve, though single readings can be large or run the other way. A potency beside an inconclusive call is a rough fit, not a confirmed value.
# Target: Lysine-specific demethylase 5B (Homo sapiens) (UniProt Q9UGL1)
# Experiment: Primary screen for KDM5B Histone Demethylases FDH-coupled qHTS; also: nearly all actives have a fitted effect of over 70% in size; as to activity change, negative = inhibition: 0% is about no effect
# Conditions: FDH-coupled NADH fluorescence (FDH is formaldehyde dehydrogenase); activity change, negative = inhibition: at 57.7 µM (top of the series) unless noted
# Outline: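 Inhibition is measured as reduced NADH fluorescence generation from FDH coupling to formaldehyde release. Truncated KDM5BΔAP at 200 nM final acts on H3K4me3 peptide (12.5 µM in substrate mix) in pH 7.5 HEPES buffer with Tween-20, 30 min, room temperature.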
# Potency is read from the fitted curve at half-maximal effect; tags tell the direction and shape of the fitted curve.
# Chain of UniProt Q9UGL1 (Q9UGL1 whole entry, looked up): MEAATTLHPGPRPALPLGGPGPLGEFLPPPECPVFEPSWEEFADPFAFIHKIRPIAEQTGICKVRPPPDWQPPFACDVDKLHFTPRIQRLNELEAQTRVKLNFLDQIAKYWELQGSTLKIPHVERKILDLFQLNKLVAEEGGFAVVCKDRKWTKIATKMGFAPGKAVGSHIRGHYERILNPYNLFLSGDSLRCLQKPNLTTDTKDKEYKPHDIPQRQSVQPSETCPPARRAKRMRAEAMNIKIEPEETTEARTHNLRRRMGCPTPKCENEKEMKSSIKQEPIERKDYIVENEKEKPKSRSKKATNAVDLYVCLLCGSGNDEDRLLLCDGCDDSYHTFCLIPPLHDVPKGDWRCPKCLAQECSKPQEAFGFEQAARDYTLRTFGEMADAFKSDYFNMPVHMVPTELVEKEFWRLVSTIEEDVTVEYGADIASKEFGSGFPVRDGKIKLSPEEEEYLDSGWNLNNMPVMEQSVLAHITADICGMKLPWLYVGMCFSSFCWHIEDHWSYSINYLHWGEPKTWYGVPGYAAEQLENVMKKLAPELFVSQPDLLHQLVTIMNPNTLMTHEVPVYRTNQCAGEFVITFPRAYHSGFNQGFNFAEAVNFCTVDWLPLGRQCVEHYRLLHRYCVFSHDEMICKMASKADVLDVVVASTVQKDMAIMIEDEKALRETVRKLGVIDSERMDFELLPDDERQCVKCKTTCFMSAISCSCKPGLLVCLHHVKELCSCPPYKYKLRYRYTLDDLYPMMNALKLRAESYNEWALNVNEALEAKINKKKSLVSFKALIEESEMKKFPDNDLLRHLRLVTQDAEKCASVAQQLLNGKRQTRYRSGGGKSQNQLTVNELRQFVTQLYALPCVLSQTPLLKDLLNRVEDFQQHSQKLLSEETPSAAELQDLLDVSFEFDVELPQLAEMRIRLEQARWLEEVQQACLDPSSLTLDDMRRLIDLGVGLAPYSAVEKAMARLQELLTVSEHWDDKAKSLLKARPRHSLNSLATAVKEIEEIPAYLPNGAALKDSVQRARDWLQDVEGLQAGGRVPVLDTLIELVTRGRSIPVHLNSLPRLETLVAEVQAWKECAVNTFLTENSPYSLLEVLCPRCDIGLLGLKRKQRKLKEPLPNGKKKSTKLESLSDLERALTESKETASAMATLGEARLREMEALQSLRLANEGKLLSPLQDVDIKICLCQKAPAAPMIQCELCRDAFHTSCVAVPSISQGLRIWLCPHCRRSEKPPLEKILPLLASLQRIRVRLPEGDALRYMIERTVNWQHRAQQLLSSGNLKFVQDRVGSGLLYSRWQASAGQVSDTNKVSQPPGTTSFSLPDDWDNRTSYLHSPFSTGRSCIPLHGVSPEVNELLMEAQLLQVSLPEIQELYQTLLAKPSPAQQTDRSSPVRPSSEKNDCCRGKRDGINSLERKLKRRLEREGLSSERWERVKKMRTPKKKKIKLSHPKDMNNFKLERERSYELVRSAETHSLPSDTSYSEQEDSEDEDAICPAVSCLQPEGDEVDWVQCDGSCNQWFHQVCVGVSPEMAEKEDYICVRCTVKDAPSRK
Structure (SMILES),Potency,"activity change, negative = inhibition"
COc1ccc(-c2noc(CC3CCN(C(=O)COc4ccc(C)cc4)CC3)n2)cc1,"inconclusive: 14.1 µM [inhibitor, partial curve, poor fit]",
O=C(NC1CCN(CC(F)(F)F)CC1)c1ccc(F)cc1,,inactive: 12.3%
COc1cc(OC)cc(OCc2nc3c(n2Cc2ccccc2)C(=O)N(Cc2cccc(Cl)c2)CCN3)c1,"inconclusive: 20 µM [inhibitor, single point]",
O=CNN(C=O)c1ccccc1,,inactive: -5.7%
C=CCC1(CO)CCCN(C(=O)c2cccc(N3CCNC3=O)c2)C1 (configuration not stated),"inconclusive: 39.8 µM [inhibitor, single point]",
CCc1ccccc1N1C(=O)N(Cc2cc(=O)n3ccccc3n2)c2ccccc2S1(=O)=O,"inconclusive: 28.2 µM [inhibitor, partial curve, poor fit]",
O=C(NCc1ccccc1)c1c2c(nc3ccccc13)C(=O)N(C1CCCCC1)C2,"inconclusive: 25.1 µM [inhibitor, single point]",
Cc1cc(=O)oc2cc(NC(=O)CCCOc3ccccc3)ccc12,"inconclusive: 11.2 µM [inhibitor, partial curve, poor fit]",
CCC(C)NC(=O)Cn1c(-c2ccccc2)cc2ccccc21 (configuration not stated),"inconclusive: 39.8 µM [inhibitor, single point]",
C[C@]1(CO)C2CC[C@@H](O)[C@@H](CC(=O)N3CCOCC3)[C@]2(C)CC[C@H]1OC(=O)Nc1ccccc1 (some centres not stated),,inactive: 8.17%
CCCCn1c(N)c(N(CCC(C)C)C(=O)c2cc(-c3ccco3)nc3ccccc23)c(=O)[nH]c1=O,"inconclusive: 25.1 µM [inhibitor, partial curve, poor fit]",
O=C(NCc1ccccc1CN1CCOCC1)c1cc(-c2ccco2)nc2ccccc12,"inconclusive: 28.2 µM [inhibitor, partial curve, poor fit]",
COc1ccc(CC(=O)Nc2ccc3ncnc(N4CCCCC4)c3c2)c(Cl)c1,active: 31.6 µM,
Cn1c(=O)c2c(-c3ccccc3)n(-c3cccc(C#N)c3)cc2n(C)c1=O,"inconclusive: 15.8 µM [inhibitor, partial curve, poor fit]",
O=C(O)c1ccc(Nc2ncnc3scc(-c4ccccc4)c23)cc1,,inactive: 11.9%
COc1ccc2c(C)c(CCC(=O)Nc3ccccc3OC)c(=O)oc2c1,"inconclusive: 17.8 µM [inhibitor, partial curve, poor fit]",
N#Cc1ccccc1OCC(=O)Nc1ccc(-c2nc3ccccc3o2)cc1,"inconclusive: 35.5 µM [inhibitor, partial curve, poor fit]",
O=C(Cn1nc(N2CCCCC2)c2ccccc2c1=O)Nc1ccc2c(c1)OCCO2,,inactive: 9.33%
CCc1nc(-c2c3n(c(=O)n(CC(=O)Nc4ccc(C)c(C)c4)c2=O)CCCC3)no1,,inactive: 10.7%
O=C(NC1CCN(c2nc3ncccc3o2)CC1)c1ccc(Cl)nc1,active: 25.1 µM,
CCN(Cc1ccccc1)C(=O)Cn1c(=O)cc(C)c2c(C)nn(-c3cccc(F)c3)c21,"inconclusive: 25.1 µM [inhibitor, single point]",
Cc1c(C)n(CCCN(C)C)c2ncn3nc(-c4ccccn4)nc3c12,"inconclusive: 31.6 µM [inhibitor, single point]",
NC(=O)C(Sc1ccccc1F)c1ccccc1 (configuration not stated),,inactive: -0.196%

Structure (SMILES),Potency,"activity change, negative = inhibition"
Cc1cc(OC(C)C(=O)N(Cc2ccco2)Cc2ccco2)cc(C)c1Cl (configuration not stated),"inconclusive: 2.51 µM [inhibitor, partial curve, poor fit]",
Cc1cc(Cl)ccc1NNC(=O)c1c(C)noc1C,"inconclusive: 17.8 µM [inhibitor, single point]",
CC(C)c1ccc(NC(=O)[C@H]2O[C@@H]3OC(C)(C)O[C@@H]3[C@H]3OC(C)(C)O[C@H]32)cc1,"inconclusive: 25.1 µM [inhibitor, partial curve, poor fit]",
CC(C)C(=O)N1c2ccccc2NC2=C(C(=O)CC(C)(C)C2)C1c1cccnc1 (configuration not stated),,inactive: -2.01%
CCN(CC)c1ccc2nc3c(=O)n(C)c(=O)n(C)c3nc2c1,"inconclusive: 25.1 µM [inhibitor, partial curve, poor fit]",
CCOc1nccnc1NC1CCN(C(=O)C2CCCO2)CC1 (configuration not stated),active: 28.2 µM,
COc1ccc(-c2nc3c(c(=O)[nH]2)CCN(C(=O)c2ccccc2)C3)cc1,"inconclusive: 39.8 µM [inhibitor, single point]",
CSc1ccc(C)c(C(=O)NC2CCCCC2)c1,,inactive: -24.1%
O=C(O)c1ccc(CN2Cc3[nH]cnc3C[C@H]2c2nc(-c3ccc(F)c(Cl)c3)no2)cc1,active: 25.1 µM,
COc1ccc(-n2ccnc(NCCc3ccc(S(N)(=O)=O)cc3)c2=O)cc1Cl,"inconclusive: 15.8 µM [inhibitor, partial curve, poor fit]",
Cc1cccn2c(=O)cc(COc3cccc(NC(=O)Nc4cccc(Cl)c4)c3)nc12,,inconclusive: -39.6% [inhibitor]
CN1CC(=O)N(c2ccccc2)Cc2c(NC3CC3)ncnc21,"inconclusive: 89.1 µM [inhibitor, partial curve]",
COC(=O)c1ccc2nc(CO[C@H]3CN(C4CCC4)C[C@H]3F)[nH]c2c1,"inconclusive: 31.6 µM [inhibitor, partial curve]",
COc1ccc(S(=O)(=O)NCCC(C)C)c2cccnc12,"inconclusive: 25.1 µM [inhibitor, partial curve, poor fit]",
CN(C)S(=O)(=O)N(CC(=O)NCCSCc1ccc(Cl)cc1Cl)c1ccccc1,"inconclusive: 2.24 µM [inhibitor, partial curve, poor fit]",
COc1cc(F)ccc1-c1cn(C)c(=O)n2cc(CN3CCOCC3)nc12,,inactive: 24.4% [at 86.2 µM]
COC(=O)C(C#N)c1nc2ccccc2nc1NC1CC1 (configuration not stated),"inconclusive: 22.4 µM [inhibitor, partial curve, poor fit]",
Cc1ccc2c(COC(=O)[C@H](C)NC(=O)c3ccccc3)cc(=O)oc2c1C,,inactive: 2.24%
CC(C(=O)NCc1ccc2c(c1)OCO2)n1nc(-c2ccccc2)c2ccccc21 (configuration not stated),"inconclusive: 39.8 µM [inhibitor, single point]",
CCC(C)NC(=O)Cc1csc2nc(C)c(-c3cc(C)n(-c4ccc(C(C)C)cc4)n3)c(=O)n12 (configuration not stated),"inconclusive: 25.1 µM [inhibitor, partial curve, poor fit]",
COc1ccc(CNC(=O)[C@@H]2Cc3nc[nH]c3CN2Cc2cc3ccccc3o2)cc1,"inconclusive: 39.8 µM [inhibitor, partial curve]",
CCCCn1c(CNC(=O)OC(C)(C)C)nc2cccnc21,"inconclusive: 100 µM [inhibitor, partial curve]",
O=C(Nc1cccc(F)c1)c1cnc2c(c1)N([S+](=O)([O-])c1cccnc1)CCC2,"inconclusive: 28.2 µM [inhibitor, single point]",

Structure (SMILES),Potency,"activity change, negative = inhibition"
NC(=O)c1nsc(C(=O)N(c2ccccc2F)C(C(=O)NCc2ccccc2)c2ccc(O)cc2)c1N (configuration not stated),"inconclusive: 28.2 µM [inhibitor, partial curve, poor fit]",
CCCCCCCOc1ccc(/C=C/C(=O)O)cc1OC,"inconclusive: 39.8 µM [inhibitor, single point]",
CN(C)CCCNc1c2ccccc2nc2ccccc12,"inconclusive: 12.6 µM [inhibitor, partial curve, poor fit]",
COc1cc2[nH]c(=O)n(CCCC(=O)N(C)Cc3ccccc3)c(=O)c2cc1OC,"inconclusive: 28.2 µM [inhibitor, partial curve, poor fit]",
COC[C@@H]1CN(c2cnccn2)C[C@H]1C(=O)NCc1c(C)n[nH]c1C,active: 20 µM,
CCc1c(-c2ccccc2)nc2sc3c(c2c1N)CCCC3,"inconclusive: 25.1 µM [inhibitor, partial curve, poor fit]",
O=C1CCC2(CCN1Cc1ccccc1)CCN(S(=O)(=O)c1cccs1)CC2,,inactive: 28.1%
CN=c1scc(C)n1/N=C/c1ccc(C#N)cc1,,inactive: 19.2%
Cc1ccc2[nH]c(=O)c(CCC(=O)NCCN3CCc4ccccc4C3)cc2c1,"inconclusive: 28.2 µM [inhibitor, partial curve, poor fit]",
Cc1ccc2nc(-c3ccc(NC(=O)C4CCC(C)(C(=O)O)C4(C)C)cc3)sc2c1 (configuration not stated),,inactive: -3080%
COCCNC(=O)c1cc(-c2cccc(Cl)c2)on1,,inactive: -6.23%
CCc1nc(NCc2ccncc2)c(C#N)c2c1CCCC2,"inconclusive: 1.78 µM [inhibitor, full curve, poor fit]",
COc1ccc(-c2cc(N3CCCC(NC(=O)c4ccc(C)cc4C)C3)n[nH]2)cc1 (configuration not stated),,inactive: -10.8%
COc1cccc(OC)c1C(=O)OCc1ccc(Br)cc1,,inactive: 10.9%
O=C(CCC1CCN(c2cc(NC3CC3)ncn2)CC1)NCCN1CCCCC1,,inactive: -3.71%
C=CCNC(=O)c1ccccc1CSc1nc2ccccc2o1,,inactive: -0.994%
O=C(Cc1n[nH]c(=O)c2ccccc12)NCCCc1ccccc1,,inactive: -16.5%
CCCCN(CC)CCCNC(=O)c1sc2nc3n(c(=O)c2c1C)CCCCC3,,inactive: 1.39%
Cc1ccc(CCNC(=O)CCCn2c(=O)c3cccn3c3ccc(F)cc32)cc1,"inconclusive: 31.6 µM [inhibitor, single point]",
CN1CC(=O)N(C2CCCNCC2)Cc2c(NC3CCCCC3O)ncnc21 (configuration not stated),"inconclusive: 56.2 µM [inhibitor, partial curve, poor fit]",
N#C/C(=C(/O)COC(=O)COc1cccc(Br)c1)c1nc2ccccc2[nH]1,"inconclusive: 17.8 µM [inhibitor, single point]",
